According to PubChem BioAssay AID743279 (National Center for Advancing Translational Sciences (NCATS), 2014):
The campaign covered roughly 360,000 compounds. About 17,000 (4.7%) were called active. The shares of active, inactive and inconclusive entries below differ from those in the screen. Cut-off read from the data, not from the text of the source: active = activity change below about -50%; inconclusive = mostly about -30% to -49%; inactive = weaker than that.

Assay: qHTS for Inhibitors of Inflammasome Signaling: IL-1-beta AlphaLISA Primary Screen
Details: THP-1 LPS/ATP IL-1B secretion, 16 h; at 57.5 µM, stronger effect = lower value
In short: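 THP-1 cells pretreated 1 hr with compounds (up to 57.5 uM final), then stimulated with LPS (250 ng/mL final) plus ATP (1.25 mM final); secreted IL-1B measured by AlphaLISA after 16 hr, decreased signal indicating inhibition.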
% is set by controls: 0 for no effect and ±100 for the full control effect.

Row | SMILES | activity change
1 | O=C1CNC(=S)N1CCCc1ccccc1 | inconclusive: -31%
2 | CCc1nc(SCC(=O)Nc2ccc(N(C)C)cc2)c2ccccc2n1 | inconclusive: -30.8%
3 | O=C(O)c1cc(-c2c[nH]c3ccccc23)nc2ccc3ccccc3c12 | inactive: 18.3%
4 | CC(=O)Nc1ccc(Sc2ncnc3scc(-c4ccccc4)c23)cc1 | inconclusive: -35.6%
5 | O=C(C1=C[C@@H](c2coc3ccccc3c2=O)C[C@@H](OCc2ccc(CO)cc2)O1)N1CCN(Cc2ccc3c(c2)OCO3)CC1 | inconclusive: -47.6%
6 | Cc1c(C)n(CCCN(C)C)c2ncnc(NCc3ccccc3)c12 | inconclusive: -34.4%
7 | O=C(CNc1n[nH]c(=O)[nH]c1=O)N/N=C/C1CC=CCC1 (stereo not drawn) | inactive: -7.97%
8 | CC(=O)Oc1cccc(/C=c2\sc3nc(-c4ccco4)nn3c2=O)c1 | inconclusive: -32.1%
9 | COc1cn(-c2ccccc2)nc1C(=O)Nc1ccc(C)cc1 | inconclusive: -48.8%
10 | CCCC#Cc1cnc2c(c1)C(=O)N([C@H](C)CO)C[C@@H](C)[C@H](CN(C)S(=O)(=O)c1cccc(OC)c1)O2 | inconclusive: -36.2%
11 | COc1ccc(-c2nc(-c3cccnc3)no2)cc1OC | inconclusive: -33.8%
12 | COc1cccc(C(=O)NNC(=O)CCN2CCN(c3ccccc3)CC2)c1 | inactive: 5.87%
13 | COc1ccc(C(=O)CCC(=O)N2CCN(c3cc(C)ccc3C)CC2)cc1 | inconclusive: -36.9%
14 | CCc1cc2c(=O)c(-c3nc4ccccc4n3C)c(C)oc2c(CN2CCOCC2)c1O | inactive: -16.2%
15 | N#Cc1ccc(OS(=O)(=O)c2ccc(-c3ccon3)s2)cc1 | inconclusive: -41.7%
16 | CCc1cccc2c(C(=O)COC(=O)[C@@H]3CC(O)CN3S(=O)(=O)c3ccccc3[N+](=O)[O-])c[nH]c12 (stereo partly drawn) | active: -76.4%
17 | CC(CN1CCN(C)CC1)OC(=O)c1ccc(F)cc1 (stereo not drawn) | inactive: 9.99%
18 | CC(C)(C)c1cc(NC(=O)Nc2ccccc2)no1 | active: -53.8%
19 | COCCNC(=S)N/N=C(\C)c1ccccc1O | inconclusive: -35.1%
20 | O=C1CN(C(=O)c2ccc(Br)o2)C(c2ccccc2)c2cc(Br)ccc2N1 (stereo not drawn) | inconclusive: -36.4%
21 | COc1ccc(N(C(=O)c2snc(C(N)=O)c2N)C(C(=O)NCc2ccccc2)c2ccc(F)cc2)c(OC)c1 (stereo not drawn) | inconclusive: -38.3%
22 | Cc1c(C(=O)NCc2cccc(Cl)c2)sc(=O)n1Cc1ccc(F)cc1 | active: -57.9%
23 | CC(=O)c1ccc(C(=O)N2CCCC(N3CCN(c4ccc(F)cc4)CC3)C2)s1 (stereo not drawn) | inactive
24 | O=C(NC1CCCc2ccccc21)C1CCN(c2c3c(nc4ncnn24)CCC3)CC1 (stereo not drawn) | inactive: -5.98%
25 | CCN1CCC[C@H]1CNC(=O)c1c(OC)ccc(Br)c1OC | inactive: 2.78%
26 | COc1ccc(-n2cnc3cc(C(=O)N4CCOCC4)ccc32)cc1 | inconclusive: -47.3%
27 | COc1cc(C(=O)N2CCN(S(=O)(=O)c3cccs3)CC2)cc(OC)c1C | inconclusive: -39.9%

Row | SMILES | activity change
28 | O=C(NCCc1cccc(Cl)c1)c1ccc(OC2CCN(Cc3ccccn3)CC2)cc1 | inconclusive: -31.2%
29 | CN1CCN(S(=O)(=O)c2ccc(SCCOc3ccc(Cl)cc3)nc2)CC1 | inconclusive: -43.5%
30 | CCCC(CCC)C(=O)Nc1ccc2c(c1)N(C(=O)CCN1CCN(C)CC1)c1ccccc1CC2 | inconclusive: -45.4%
31 | CCCCCCn1c(SCCCC)nc2c1c(=O)[nH]c(=O)n2C | inactive: 3.28%
32 | COc1ccc(NC(=O)CN(C)C(=O)c2cc(-c3cccs3)nn2-c2ccccc2)cc1 | inconclusive: -35%
33 | O=C(NCc1ccccn1)c1ccc(-c2ccccc2)cc1 | inconclusive: -32.6%
34 | Oc1c(CN2CCOCC2)cc(CN2CCOCC2)c(O)c1O | inactive: 13.6%
35 | CCOc1ccc(Br)cc1C1=NN(C(C)=O)C(c2ccc([N+](=O)[O-])s2)O1 (stereo not drawn) | inactive: -26.1%
36 | O=C(NC(Cc1ccccc1)C(=O)O)/C(=C/c1ccc(Cl)cc1)NC(=O)c1ccco1 (stereo not drawn) | inactive: -1.72%
37 | CC(=O)NC12CC3CC(C1)CC(C(=O)Nc1nc4ccc(F)cc4s1)(C3)C2 | inconclusive: -36.1%
38 | O=C(NCc1ccco1)c1cnn2c(C(F)(F)F)cc(-c3ccccc3)nc12 | inconclusive: -45.8%
39 | CC1=Nc2cc(C(=O)O)ccc2Sc2ccc(Br)cc21 | inactive: 14.5%
40 | O=C(NCc1ccc2c(c1)OCO2)C(=O)NCC1OCCN1S(=O)(=O)c1ccc(Br)cc1 (stereo not drawn) | inconclusive: -35%
41 | CCc1ccc(S(=O)(=O)N2CCN(c3ncccn3)CC2)cc1 | inconclusive: -35%
42 | CN(Cc1ccc(OC(F)F)cc1)C(=O)c1cccc(S(=O)(=O)N2CCN(Cc3ccccc3)CC2)c1 | active: -59.8%
43 | CCc1ccc2nc(N(CCCN(C)C)C(=O)c3ccc(C(=O)c4ccccc4)cc3)sc2c1 | active: -61.4%
44 | Nc1ncc(Br)cc1S(=O)(=O)NCCC(=O)Nc1cccc(Cl)c1 | active: -61.1%
45 | COc1cc(C(=O)Sc2ccc(Cl)cc2)cc(OC)c1OC | inconclusive: -31.9%
46 | COc1ccc(-c2noc(CCC(=O)N3CCN(c4ccccc4F)CC3)n2)cc1 | inconclusive: -32.7%
47 | O=C1N[C@@H](c2ccccc2)COC(=O)[C@@H](Cc2ccc(F)cc2)CC/C=C/C[C@@H]1CC(=O)N(CCO)Cc1ccccc1 | inconclusive: -40%
48 | COc1ccc(C(=O)Nc2ccc(NC(=O)c3ccco3)c(Cl)c2)cc1OC | inconclusive: -46.7%
49 | O=C(/C=C/c1ccc(Cl)cc1)Nc1cc(S(=O)(=O)N2CCOCC2)ccc1N1CCOCC1 | inconclusive: -43.5%
50 | CSCc1ccc(C(=O)NCc2ccc(F)cc2)cc1 | inconclusive: -48.3%
51 | CCS(=O)(=O)n1nc(-c2ccccc2)nc1NCc1ccco1 | inactive: -6.72%
52 | CCCNC(=O)c1ccc(N2CCC3(CC2)CC(c2ccccc2)=NO3)c([N+](=O)[O-])c1 | inconclusive: -39.8%
53 | COc1cccc(C(NC(C)=O)c2nc(-c3ccc(OC)nc3)cs2)c1 (stereo not drawn) | active: -73.5%
